Laboratory results from the supplement of paper PMC3334620.
In all, about 33,000 sequences were measured (“E-score (-0.5 to 0.5)”: median about -0.035, highest 2% from about 0.35 on). This is one part of the list.

biological target: T1, Pdr3 (UniProt P33200); assay: PBM E-score (8-mer binding enrichment) (E-score (-0.5 to 0.5)); higher = stronger / more preferred TF binding; most listed sequences are background and not binding sites; details: protein concentration: 200 nM; construct: GST-full length
T1 sequence: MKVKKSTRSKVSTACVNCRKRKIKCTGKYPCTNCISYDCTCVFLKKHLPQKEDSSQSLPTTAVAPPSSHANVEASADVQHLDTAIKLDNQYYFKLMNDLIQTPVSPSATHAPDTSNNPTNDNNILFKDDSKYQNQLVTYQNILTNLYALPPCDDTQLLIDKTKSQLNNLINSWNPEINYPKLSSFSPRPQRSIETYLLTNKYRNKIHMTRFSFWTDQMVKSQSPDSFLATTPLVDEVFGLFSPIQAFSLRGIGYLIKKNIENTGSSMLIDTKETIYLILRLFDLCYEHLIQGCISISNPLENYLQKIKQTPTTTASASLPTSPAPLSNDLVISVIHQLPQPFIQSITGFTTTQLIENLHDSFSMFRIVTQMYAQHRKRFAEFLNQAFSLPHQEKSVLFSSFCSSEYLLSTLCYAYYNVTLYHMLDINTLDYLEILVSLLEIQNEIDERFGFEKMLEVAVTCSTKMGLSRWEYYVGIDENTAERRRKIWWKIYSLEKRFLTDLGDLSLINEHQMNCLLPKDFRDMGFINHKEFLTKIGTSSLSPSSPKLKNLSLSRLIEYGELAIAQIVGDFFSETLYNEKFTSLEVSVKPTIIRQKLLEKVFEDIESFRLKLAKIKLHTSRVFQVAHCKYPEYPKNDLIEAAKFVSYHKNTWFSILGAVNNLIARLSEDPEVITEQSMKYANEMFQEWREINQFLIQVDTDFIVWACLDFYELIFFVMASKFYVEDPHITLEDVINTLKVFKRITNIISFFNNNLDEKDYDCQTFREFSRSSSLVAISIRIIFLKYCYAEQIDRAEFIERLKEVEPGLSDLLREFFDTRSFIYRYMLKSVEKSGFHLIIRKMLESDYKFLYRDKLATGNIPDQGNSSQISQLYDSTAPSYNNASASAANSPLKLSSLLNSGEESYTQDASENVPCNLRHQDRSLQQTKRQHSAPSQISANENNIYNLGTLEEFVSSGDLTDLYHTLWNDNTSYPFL
Outline: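 Yeast transcription factors, full-length or as DNA-binding domains, were expressed with a GST tag using PURExpress in vitro transcription/translation. At about 100-200 nM they were applied to universal all-10-mer Agilent arrays, double-stranded by primer extension on fresh or once-stripped slides. Fluorescent anti-GST detected bound protein, and masliner normalised the scans. E-scores for ungapped eight-base words, pooled with reverse complements, came from the Universal PBM Analysis Suite.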

Row | Sequence | PBM E-score
1 | CGGATACA | 0.364
2 | ACGATTAC | -0.187
3 | GATTAGGC | -0.124
4 | CATGGCCA | -0.192
5 | CCAGAGCA | 0.123
6 | ATGATCGC | 0.0432
7 | CCCCTCTC | -0.179
8 | AGCGGGAA | 0.232
9 | ATGACACA | -0.0379
10 | CTTCCTCA | -0.175
11 | AATTGATA | -0.0334
12 | GCTCAGAC | -0.207
13 | AACCCGTT | 0.143
14 | ACTCGAGT | 0.0102
15 | CACCCAGC | -0.0529
16 | AGAATGAA | -0.0967
17 | TAGTTGGA | -0.0882
18 | TCGGCTAA | 0.0364
19 | AGACGGTA | -0.0491
20 | GAAGCTCA | -0.0229
21 | CGCCTCCC | -0.0886
22 | AGGCAGCC | 0.0506

Row | Sequence | PBM E-score
23 | AAAACGGG | 0.319
24 | AATTGGGG | 0.0393
25 | TACACCGA | 0.00575
26 | ATATGCCA | 0.126
27 | AACCCGGT | 0.258
28 | GAAAAGGC | 0.0334
29 | AACACATA | -0.147
30 | GTGCCTGA | -0.0827
31 | TCAACAAA | 0.0103
32 | ACGCGCAC | -0.111
33 | GAAGAGCA | -0.104
34 | CAAGAGCA | -0.179
35 | ATCCACCA | -0.126
36 | CCACGCAA | -0.0616
37 | CTTGCTTA | -0.142
38 | CCACCGAC | 0.0367
39 | AAAGAGAT | -0.216
40 | TACAGATA | -0.0245
41 | AATCCTGC | -0.00239
42 | ACAACGGT | -0.0457
43 | ACACGGTA | 0.164
44 | AAACGATG | 0.0659

Row | Sequence | PBM E-score
45 | TAGCTGCA | -0.151
46 | ATATGGGC | 0.0741
47 | ATGAGGCA | -0.151
48 | GACGTTGC | 0.107
49 | ATATCATA | 0.0878
50 | ATATGCGC | 0.122
51 | AGGTACCC | -0.128
52 | CTTATAGC | -0.178
53 | CATCCAAC | -0.032
54 | GCAGTCGC | -0.0644
55 | ATAGGGGA | -0.0873
56 | GGCCGTGA | 0.23
57 | CGGCACCG | 0.336
58 | AATGCCGC | 0.33
59 | CACGACTC | -0.192
60 | GAACAACC | 0.193
61 | CAATGCTC | -0.0438
62 | ATTGTAAG | -0.237
63 | CAAACTTG | 0.0265
64 | CATAGTAG | 0.00191
65 | CTATGAGC | -0.185
66 | AAGTCCCC | -0.0843

Row | Sequence | PBM E-score
67 | AACCCGGG | 0.424
68 | GAGGGTGA | -0.119
69 | TAGCTAGA | -0.157
70 | AAGTACGG | 0.0612
71 | ATGACGAA | -0.127
72 | CTACCAGC | -0.192
73 | ACTCGGAC | 0.305
74 | CAGAGGGC | -0.133
75 | ACTACAGG | -0.0281
76 | AGTTTGAG | -0.0369
77 | AGTATGAA | 0.2
78 | AGACTGCC | -0.045
79 | CACCACCG | 0.0405
80 | ACTAAGCT | -0.172
81 | AGAAGCGG | 0.0983
82 | CCGTGGGC | 0.296
83 | AGCCAGTC | -0.0918
84 | GTTGCAGA | -0.0577
85 | TTCTACAA | -0.177
86 | TCCCTTAA | -0.232
